The test concerns transferred T cells in mice bearing B16-mhgp100 tumors. Kind of test: Persistence in spleen on day 10, control/citrate/potassium hydroxycitrate cultures. To be noted: day 10 after transfer, gated on CD8+Ly5.1, vehicle 7.9.

Regarding `O=C([O-])CC(O)(C(=O)[O-])C(O)C(=O)[O-].[K+].[K+].[K+]` (centres unmarked) [Potassium hydroxycitrate, potassium hydroxycitrate], the “percentage of cells CD45.1 positive/CD45.2 negative” value is reported as 42.5%. With `O=C(O)CC(O)(CC(=O)O)C(=O)O` [Citrate, reference compound] the figure was 19.4%.

The record behind these values is US12415845B2 (priority 2018, dated 2025).
